# Measured values as given in publication PMC6919601, “Identification of Plasmodium dipeptidyl aminopeptidase allosteric inhibitors by high throughput screening” (PLoS ONE, 2019).
# About 230 (0.21%) of roughly 110,000 compounds showed an effect of 50% or more. The list shows a part of the results.
# Target: DPAP1 (Plasmodium falciparum, UniProt Q8IIJ9)
# Experiment: primary screen, percent inhibition; read by cleavage of a fluorogenic dipeptide substrate; higher = more effect of the substance
# Parameters: species or system P. falciparum D10 trophozoite lysates; single well
# 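Also: 30 min substrate incubation versus DMSO and 10 µM JCP410 controls.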
# DPAP1, sequence (Q8IIJ9 whole entry, looked up): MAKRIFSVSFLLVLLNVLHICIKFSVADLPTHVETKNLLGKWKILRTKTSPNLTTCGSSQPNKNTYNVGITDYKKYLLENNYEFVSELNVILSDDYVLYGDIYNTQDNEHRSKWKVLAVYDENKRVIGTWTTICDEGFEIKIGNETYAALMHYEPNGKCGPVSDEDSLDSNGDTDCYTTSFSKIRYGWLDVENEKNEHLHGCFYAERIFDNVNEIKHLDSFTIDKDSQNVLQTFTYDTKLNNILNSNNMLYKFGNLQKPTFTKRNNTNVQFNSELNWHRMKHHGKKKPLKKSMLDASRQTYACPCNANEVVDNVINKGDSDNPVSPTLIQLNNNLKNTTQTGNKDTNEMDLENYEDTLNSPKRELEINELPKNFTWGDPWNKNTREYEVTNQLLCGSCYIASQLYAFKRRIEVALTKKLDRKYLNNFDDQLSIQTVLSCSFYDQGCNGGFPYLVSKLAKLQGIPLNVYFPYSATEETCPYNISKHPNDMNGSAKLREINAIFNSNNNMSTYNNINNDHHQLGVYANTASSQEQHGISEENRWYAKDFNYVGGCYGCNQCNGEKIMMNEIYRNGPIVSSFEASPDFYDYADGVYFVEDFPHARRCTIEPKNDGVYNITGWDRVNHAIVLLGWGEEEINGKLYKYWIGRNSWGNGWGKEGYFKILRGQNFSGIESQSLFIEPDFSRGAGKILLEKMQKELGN
row,Structure (SMILES),% Inhibition @ 10 uM [%]
1,CC(=O)c1c(C)n(C)c2ccc(O)cc12,-7.98
2,COc1ccc(S(=O)(=O)N(CC(=O)Nc2cccnc2)c2cccc(Cl)c2)cc1,2.17
3,CC1(C)CC(=O)C2=C(C1)OC(N)=C(C#N)C2c1ccc(N2CCCC2)cc1 (stereo not drawn),4.65
4,Cc1ccccc1-c1nc(SCc2cc(=O)n3nc(C(C)C)sc3n2)n[nH]1,-7.24
5,CCCCn1c(=O)[nH]c2c(oc3ccccc32)c1=O,4.85
6,Cc1cccc2cc(C=C3C(=O)NC(=O)NC3=O)c(O)nc12,-5.28
7,CCNS(=O)(=O)c1cc(C(=O)N2CCCCC2)ccc1OC,-1.98
8,Cc1cccc(Oc2nc3ccccn3c(=O)c2/C=C(\C#N)S(=O)(=O)c2ccccc2)c1C,2
9,COCC(=O)NC(C)c1nc2ccccc2n1Cc1ccccc1C (stereo not drawn),-6.55
10,O=C1CCCC2=C1C1(O)C(=O)c3ccccc3C1(O)O2 (stereo not drawn),1.42
11,CN(C)S(=O)(=O)c1cccnc1OCC(O)CNC(C)(C)C (stereo not drawn),-7.56
12,OC1CCN(Cc2cccc(Br)c2)CC1,-1.86
13,COc1cc(C(=O)Nc2cccnc2)cc(OC)c1OC,-1.52
14,Cc1cc(Cl)ccc1OCC(=O)Nc1cccc(F)c1,-2.17
15,CCOC(=O)N1CCC(NCc2ccccc2C(F)(F)F)CC1,1.74
16,CC1CN(CCc2ccccc2)CC(C)O1 (stereo not drawn),-1.21
17,COCC1=C(C(=O)OC)C(c2ccc(F)c(Oc3ccccc3)c2)C(C#N)=C(N)O1 (stereo not drawn),-0.603
18,CCN1CCC(N2CC=C(c3ccc(F)cc3)CC2)CC1,-0.0648
19,CCCCN(Cc1ccccc1)S(=O)(=O)c1cccc2nsnc12,0.457
20,CCOc1cc(/C=C2/C(=N)N3C(SC)=NSC3=NC2=O)ccc1OS(C)(=O)=O,-5.27
21,COc1ccc(C(=O)O/N=C2/C=C(C(C)C)C(=O)C=C2C)cc1Br,-2.14
22,COc1ccc(OC)c(NC2=C(Cl)C(=O)N(c3ccccc3C)C2=O)c1,2.76
23,C=C(C)Cn1c(O)nc2ccccc21,1.12
24,COc1cc(C(=O)N2CCN(C(=O)c3cc(-c4ccc(C)cc4C)[nH]n3)CC2)cc(OC)c1OC,1.25
25,CCOC(=O)N1CCN(CC(O)COc2ccc(C(C)(C)C)cc2)CC1 (stereo not drawn),-0.822
26,CCCC(=O)Nc1ccccc1NC(=O)c1cc(Cl)ccc1OC,0.235

row,Structure (SMILES),% Inhibition @ 10 uM [%]
1,O=C(O/N=C(/c1ccccc1)c1ccncc1)c1ccc(F)cc1,-3.75
2,O=C(O)c1cc(NS(=O)(=O)c2ccc(Cl)cc2)cc(C(=O)O)c1,-4.59
3,CN1CCC(Oc2ccc(Sc3ccccc3)cc2)CC1,-0.872
4,Cc1ccccc1NC(=O)CN1CCOCC1,-0.415
5,C=CCNc1nc(NCC=C)nc(OC)n1,-2.51
6,O=C(COc1ccccc1Cl)Nc1ccc(S(=O)(=O)N2CCCCCC2)cc1,1.89
7,CN1CCC(NC2CCCCCC2)CC1,-3.6
8,COc1cc(Br)c(Cc2nc3ccccc3[nH]2)cc1OC,6
9,COc1ccc(OC)c(NC(=O)c2ccc(C)c(Br)c2)c1,-8.64
10,COc1cc(C2C3=C(O)CCCC3=Nc3ccc4nc(C)ccc4c32)cc(OC)c1OC (stereo not drawn),1.43
11,CN(Cc1ccccc1)S(=O)(=O)c1ccc(F)cc1,-2.6
12,CCOC(=O)N1CCN(C(=O)CSc2nnc(Cc3cccn3C)n2-c2ccc(C)cc2)CC1,-3.95
13,O=C(Nc1cc(F)ccc1F)C12CC3CC(C1)CC(n1cncn1)(C3)C2,-2.88
14,Brc1ccc(CN2CCN(c3ccccc3)CC2)cc1,-1.77
15,O=C(c1ccccc1)c1ccc(C(=O)c2ccccc2)cc1,-3.04
16,O=C(CC(NCCN1CCOCC1)C(=O)O)Nc1ccc(Cl)c(Cl)c1 (stereo not drawn),1.94
17,COc1ccccc1CNCCCSc1nnnn1C,-1.11
18,Cc1nc(O)nc(O)c1S(=O)(=O)N1CCC(C(=O)NCc2ccccc2Cl)CC1,2.35
19,CC(CCc1ccccc1)NC(=O)CCCc1nnc2n(C)c(=O)c3sccc3n12 (stereo not drawn),-5.35
20,O=C(NCc1ccccc1)c1c(O)nc2ccccc2c1O,-0.795
21,CCOC(=O)c1c(S(=O)(=O)NCc2ccc(OC)cc2)c(C)n(C)c1C,6.05
22,O=C(c1cc2nc(-c3ccccc3)cc(C(F)(F)F)n2n1)N1CCN(Cc2ccccc2)CC1,-0.467
23,Cc1ccc(CNC(=O)c2cc(C)nc3ccccc23)cc1,4.36
24,Cc1cccc(C)c1NC(=O)c1c(-c2ccccc2)noc1C,0.408
25,COc1ccc(Oc2c(C(F)(F)F)oc3cc(OC)ccc3c2=O)cc1,2.02
26,COc1cccc(-c2nc3c(c(SCc4ccncc4)n2)Cc2c(CO)cnc(C)c2O3)c1,2.97

row,Structure (SMILES),% Inhibition @ 10 uM [%]
1,Oc1oc(-c2cccc3ccccc23)nc1/C=N/c1nccs1,-2.74
2,CC(NC(=O)c1ccc([N+](=O)[O-])cc1)c1ccccc1 (stereo not drawn),-6.99
3,CCOc1ccc(C2C(C#N)=C(N)Oc3[nH]nc(-c4ccc(OC)cc4)c32)cc1 (stereo not drawn),0.343
4,CCCSc1nc(-c2ccccc2)cc(-c2ccc(OC)cc2)c1C#N,-7.35
5,COC(=O)c1cccc(NC(=O)C(C)Oc2ccc(C(C)(C)C)cc2)c1 (stereo not drawn),-1.36
6,CCn1c(C)cc(/C=C2/NC(=O)N(c3cccc(Cl)c3)C2=O)c1C,1.92
7,O=C(O)c1cc(Cl)c(Cl)cc1C(=O)Nc1ccc(Cl)cc1,-3.78
8,COc1cccc(C2C(C(=O)N3CCCCC3)=C(C)Nc3nc4ccccc4n32)c1OC (stereo not drawn),-3.13
9,CC1=CC(=C2C(=O)NC(=O)NC2=O)C=C(C(F)(F)F)N1Cc1ccco1,20.4
10,CCOc1ccc2nc(SCC(=O)Nc3nc(OC)cc(OC)n3)sc2c1,-2.8
11,CC(=O)N1N=C2C3CCN(CC3)C2C1c1cccs1 (stereo not drawn),-0.0235
12,CCS(=O)(=O)NCCc1cc2cc(C)c(C)cc2nc1O,-3.51
13,Cc1c(CCC(=O)O)c(O)n2c(nc3ccccc32)c1C#N,-1.72
14,Cc1ccc(NC(=O)N2CCN(C)CC2)cc1,-5.68
15,CCc1ccccc1S(=O)(=O)Cc1ccc(C(=O)NCc2ccc3c(c2)OCO3)o1,-4.96
16,CS(=O)(=O)N(CC(=O)Nc1ccc(Cl)c(Cl)c1)Cc1ccccc1,1.93
17,Cn1c(=O)c2c(nc(N3CCN(CCO)CC3)n2CCCc2ccccc2)n(C)c1=O,-8.53
18,COc1ccc(-c2cc(C(F)F)n3ncc(C(=O)N4CCC(Cc5ccccc5)CC4)c3n2)cc1,-9.37
19,COc1ccc(Br)cc1C1=N/C(=C\c2cc(OC)c(OC)c(OC)c2)C(=O)O1,-6.82
20,COc1ccc(-c2nc(N3CCC(C)CC3)nc(O)c2C#N)cc1,3.34
21,Cc1cc(C)c(Cn2c(C)c(CNC3CCCCC3)c(C(=O)O)c2C)c(C)c1,4.53
22,COc1ccccc1C(=O)N1CCN(c2ccc3nnc(-c4ccccc4)n3n2)CC1,0.291
23,O=C(Cn1ncc2c1-c1ccccc1OC2)N1CCOCC1,-1.66
24,COc1ccccc1-c1ccc(C=C(C(C)=O)C(C)=O)o1,-5.28
25,COc1ccc(C(=O)Nc2sc3c(c2C#N)CCCCC3)cc1,-1.06
26,CCOc1ccc(NC=C2C(=O)CC(c3ccccc3)CC2=O)cc1 (stereo not drawn),3.99

row,Structure (SMILES),% Inhibition @ 10 uM [%]
1,Cc1ccc2c(c1)-c1onc(C(=O)NCCCOC(C)C)c1CO2,1.97
2,COc1ccc(NC(=O)OCC2c3ccccc3-c3ccccc32)cc1,-4.01
3,COc1ccc(NCc2cccc(OC)c2)cc1,1.38
4,COc1ccc(CNS(=O)(=O)c2cccc3nsnc23)cc1,1.2
5,COc1ccc(C2=N/C(=C\c3ccccc3OC)C(=O)O2)cc1,-2.54
6,Cc1nnc(NC(=O)c2nc(S(C)(=O)=O)ncc2Cl)s1,-4.64
7,CCOC(=O)c1sc2nc(C)cc(C(F)(F)F)c2c1N,0.605
8,CCCCN(C)Cc1cc(Cl)cc(Cl)c1O,2.1
9,CC(C)Cc1nnc2sc(NC(=O)c3ccc(F)cc3)nn12,6.38
10,C=CCn1c(SCC(=O)Nc2cc(C)ccc2OC)nc2sc(C)cc2c1=O,-3.16
11,COc1ccc(/C=C/C2=NC(=C\c3cccc4ccccc34)/C(=O)O2)cc1,3.9
12,c1ccc(CN2CCN(c3ncnc4sc5c(c34)CCC5)CC2)cc1,9.65
13,COc1ccc(C(=O)C[N+]2=C(N)CCC2)cc1,-5.85
14,CC(C)C[C@H](NC(=O)c1cc(-c2ccccc2Cl)cs1)C(=O)NCC#N,-3.48
15,CCc1c(O)nc(SC2CC(=O)N(c3ccccc3)C2=O)nc1O (stereo not drawn),5.42
16,Cc1cc(C)nc(NS(=O)(=O)c2ccc(NC(=O)C(C)Oc3ccc(Cl)cc3Cl)cc2)n1 (stereo not drawn),-2.74
17,N#CC1=C(N)Oc2c(ccc3ccccc23)C1c1cccc(Br)c1 (stereo not drawn),-0.986
18,CCC(C(=O)NCC1CCCN1CC)n1nc(C)c2sc3ccccc3c2c1=O (stereo not drawn),-4.09
19,COc1ccc(NC(=O)c2cc(S(=O)(=O)N3CCCCC3)ccc2Br)cc1,-1.36
20,CCN1c2ccccc2NC2C1C(C(C)=O)C(=O)N2c1ccc(Cl)cc1 (stereo not drawn),0.177
21,Cc1cccc(C(=O)OC(C)CN2C(C)CCCC2C)c1 (stereo not drawn),-5.51
22,CC1CC(=O)C2=C(C1)OC(N)=C(C#N)C2c1ccc(Cl)cc1Cl (stereo not drawn),-3.79
23,CCS(=O)(=O)c1ccsc1S(=O)(=O)CC,3.06
24,CC1=C(C(=O)Nc2ccccc2F)C(c2ccc3c(c2)OCO3)C2=C(O)CCCC2=N1 (stereo not drawn),6.97
